Target: wild type ACE2 ECD-Fc fusion protein (Homo sapiens, UniProt Q9BYF1)
Type: biochemical

Chain of wild type ACE2 ECD-Fc fusion protein (Q9BYF1 other isoform, or with tags, fused parts or gaps): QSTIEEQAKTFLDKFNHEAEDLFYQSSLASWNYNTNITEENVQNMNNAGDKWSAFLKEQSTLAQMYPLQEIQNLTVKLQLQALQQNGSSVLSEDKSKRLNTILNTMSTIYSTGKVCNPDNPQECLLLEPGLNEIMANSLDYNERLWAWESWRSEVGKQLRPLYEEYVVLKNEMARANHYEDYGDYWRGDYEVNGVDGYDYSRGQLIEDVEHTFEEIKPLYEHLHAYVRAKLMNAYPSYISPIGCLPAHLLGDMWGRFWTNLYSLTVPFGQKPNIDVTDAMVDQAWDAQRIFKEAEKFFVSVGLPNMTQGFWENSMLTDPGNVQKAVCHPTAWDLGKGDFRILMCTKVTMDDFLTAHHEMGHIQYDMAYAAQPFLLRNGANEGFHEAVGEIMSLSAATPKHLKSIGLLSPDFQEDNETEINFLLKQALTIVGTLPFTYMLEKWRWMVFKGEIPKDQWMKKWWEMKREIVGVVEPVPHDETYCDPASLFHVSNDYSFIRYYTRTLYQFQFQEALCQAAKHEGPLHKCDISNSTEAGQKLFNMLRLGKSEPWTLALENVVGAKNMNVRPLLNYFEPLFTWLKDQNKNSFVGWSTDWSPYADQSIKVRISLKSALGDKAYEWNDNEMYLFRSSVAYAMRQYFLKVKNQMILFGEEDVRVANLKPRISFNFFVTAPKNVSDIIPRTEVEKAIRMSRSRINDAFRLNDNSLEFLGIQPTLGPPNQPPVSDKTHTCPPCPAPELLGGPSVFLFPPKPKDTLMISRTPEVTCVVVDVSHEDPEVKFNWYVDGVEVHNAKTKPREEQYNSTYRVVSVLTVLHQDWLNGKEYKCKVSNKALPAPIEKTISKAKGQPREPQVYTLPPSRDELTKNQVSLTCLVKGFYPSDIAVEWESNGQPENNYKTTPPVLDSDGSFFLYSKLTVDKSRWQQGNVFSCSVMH

CC(C)C[C@H](N[C@@H](Cc1cncn1Cc1cc(Cl)cc(Cl)c1)C(=O)O)C(=O)O [MLN-4760]
RFU in the presence of ACE2 inhibitor: significantly reduced

Reference: patent US11453869B2 (priority 2020, dated 2022)
